These are yes or no findings as the source states them, for the method shown. For some of these results: In cells and extracts the contact can be indirect. Some binding calls cover weakened binding; strength is not graded here. Tags and fused reporters may be left off the sequences shown.
Key:
[1] = target: T1, Nucleoplasmin-Like Protein, V5-tagged (NLP-V5) (Drosophila) (UniProt Q27415); test: co-IP; S2 cells co-transfected with V5- and HA-tagged constructs; nuclear lysate with Benzonase, 300 mM then 150 mM NaCl, 0.5% IGEPAL CA-630; rabbit anti-V5 antibody and Protein A Dynabeads; western blot with anti-V5 and anti-HA
T1 sequence: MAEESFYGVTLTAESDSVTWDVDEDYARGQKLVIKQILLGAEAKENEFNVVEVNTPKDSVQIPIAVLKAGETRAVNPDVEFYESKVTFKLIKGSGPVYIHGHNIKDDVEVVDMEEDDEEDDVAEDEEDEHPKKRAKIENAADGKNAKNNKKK

[2] = target: T2, NLP V79E, V5-tagged (Drosophila) (UniProt Q27415); test: as above
T2 sequence: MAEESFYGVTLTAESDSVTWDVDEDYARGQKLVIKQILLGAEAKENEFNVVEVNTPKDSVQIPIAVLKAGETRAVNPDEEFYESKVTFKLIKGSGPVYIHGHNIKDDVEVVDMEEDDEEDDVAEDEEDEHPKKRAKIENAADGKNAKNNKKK

[3] = target: T3, NLP F6E/I62E/V79E triple mutant, V5-tagged (Drosophila) (UniProt Q27415); test: as above
T3 sequence: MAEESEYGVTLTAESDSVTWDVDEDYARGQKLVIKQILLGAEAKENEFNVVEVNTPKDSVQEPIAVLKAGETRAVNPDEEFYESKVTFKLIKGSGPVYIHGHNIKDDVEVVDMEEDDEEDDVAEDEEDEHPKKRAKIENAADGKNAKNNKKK

[4] = target: T4, NLP F6E, V5-tagged (Drosophila) (UniProt Q27415); test: as above
T4 sequence: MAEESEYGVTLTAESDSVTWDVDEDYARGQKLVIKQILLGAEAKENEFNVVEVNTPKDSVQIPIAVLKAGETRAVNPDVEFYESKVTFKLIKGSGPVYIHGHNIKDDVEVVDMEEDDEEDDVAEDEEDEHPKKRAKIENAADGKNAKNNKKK

[5] = target: T5, NLP I62E, V5-tagged (Drosophila) (UniProt Q27415); test: as above
T5 sequence: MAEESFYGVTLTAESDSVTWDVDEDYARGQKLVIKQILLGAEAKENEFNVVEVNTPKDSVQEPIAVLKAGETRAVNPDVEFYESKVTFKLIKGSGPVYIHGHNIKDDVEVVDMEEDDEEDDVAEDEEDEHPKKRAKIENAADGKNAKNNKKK

[6] = target: T1, Nucleoplasmin-Like Protein, V5-tagged (NLP-V5) (Drosophila); test: SDS-PAGE and western blot of a thermostable high-molecular weight species; proteins overexpressed in S2 cells, western blot (Supplementary Figure S1B)
[7] = target: T6, NLP N76R, V5-tagged (Drosophila) (UniProt Q27415); test: co-IP; S2 cells co-transfected with V5- and HA-tagged constructs; nuclear lysate with Benzonase, 300 mM then 150 mM NaCl, 0.5% IGEPAL CA-630; rabbit anti-V5 antibody and Protein A Dynabeads; western blot with anti-V5 and anti-HA
T6 sequence: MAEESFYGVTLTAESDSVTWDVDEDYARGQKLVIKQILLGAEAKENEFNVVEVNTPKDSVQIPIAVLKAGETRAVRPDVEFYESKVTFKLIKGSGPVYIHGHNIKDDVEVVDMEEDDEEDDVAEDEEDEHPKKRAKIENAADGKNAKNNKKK

B1: Nucleoplasmin-Like Protein, HA-tagged (NLP-HA) (protein, UniProt Q27415 1-152)
chain: MAEESFYGVTLTAESDSVTWDVDEDYARGQKLVIKQILLGAEAKENEFNVVEVNTPKDSVQIPIAVLKAGETRAVNPDVEFYESKVTFKLIKGSGPVYIHGHNIKDDVEVVDMEEDDEEDDVAEDEEDEHPKKRAKIENAADGKNAKNNKKK
binding [1]: binds
binding [2]: no binding
binding [3]: no binding
binding [4]: no binding
binding [5]: binds weakly

B2: Nucleoplasmin-Like Protein, V5-tagged (NLP-V5) (protein, UniProt Q27415 1-152)
chain: MAEESFYGVTLTAESDSVTWDVDEDYARGQKLVIKQILLGAEAKENEFNVVEVNTPKDSVQIPIAVLKAGETRAVNPDVEFYESKVTFKLIKGSGPVYIHGHNIKDDVEVVDMEEDDEEDDVAEDEEDEHPKKRAKIENAADGKNAKNNKKK
binding [6]: binds

B3: NLP N76R, HA-tagged (protein, UniProt Q27415 1-152)
chain: MAEESFYGVTLTAESDSVTWDVDEDYARGQKLVIKQILLGAEAKENEFNVVEVNTPKDSVQIPIAVLKAGETRAVRPDVEFYESKVTFKLIKGSGPVYIHGHNIKDDVEVVDMEEDDEEDDVAEDEEDEHPKKRAKIENAADGKNAKNNKKK
binding [7]: binds

— paper PMC6277087
